In the assay the test system is Plasmodium falciparum. Put plainly: Primary screen in NF54 nanoGlo assay, in single point, at 2uM, 72h; a lower Z score goes with more inhibition. Type of assay: functional, Erythrocyte. The following applies: timepoint 72 hour.

Out of some 150,000 compounds screened, about 540 (0.36%) showed an effect of 50% or more. Some of the results follow.

The values below come from ChEMBL document CHEMBL4888484, “Replenishing the malaria drug discovery pipeline: Screening and hit evaluation of the MMV Hit Generation Library 1 (HGL1) against asexual blood stage Plasmodium falciparum ,using a nano luciferase reporter read-out” (2022).

Usually % Inhibition stands for the relative decrease from the control value, in per cent.

Regarding `Cc1nn(C)cc1CNC(=O)c1cc(NC(=O)CC2CCCC2)cc2nc([C@@H]3CCCO3)n(C)c12`, the “% Inhibition” value is 9% and the Z score was -1.24.

`Cc1cc(Cl)ccc1NC(=O)N1CC[C@H](c2nnc3n2CCN(C)CC3)C1`: the “% Inhibition” value was determined as 27% and the Z score was -3.65.

For the compound `O=C(Cn1nc2c(N3CCCCCC3)nccn2c1=O)Nc1ccc2c(c1)OCCO2`, the “% Inhibition” value is -15% and the Z score came to 1.48.

For `Cc1ccc(Cl)cc1NC(=O)Cc1c(C)nc2nc(C3CCCCC3)nn2c1C`, the “% Inhibition” value is -6% and the Z score was 0.7.

As to `Cc1cccc2[nH]c(-c3cn(C)nc3-c3ccc4c(c3)OCCO4)nc12`, the “% Inhibition” value is listed as -2% and the Z score came to 0.44.

`Cc1ccc(C)c(NC(=O)CC(=O)N2CCc3[nH]nc(C(C)C)c3C2)c1`: the “% Inhibition” value is given as -8% and the Z score stood at 1.42.

As for `Cc1nc(NCc2cccc(-c3cccnc3)c2)n(C)n1`, the “% Inhibition” value is -8% and the Z score came to 0.81.

In the case of `c1cn(C2CN(c3ccnc(C4CC4)n3)C2)nn1`, the “% Inhibition” value is -2% and the Z score is reported as 0.44.

Consider `CN1CC[C@H](N(C)C(=O)Nc2ccc(C(F)(F)F)cc2)C1=O`, for which the “% Inhibition” value is given as -2% and the Z score was 0.28.

With `c1ccc(OC2CCN(c3cc(NCC4CC4)ncn3)CC2)cc1`, the “% Inhibition” value is given as -11% and the Z score was determined as 0.9.

With `O=C(Nc1ccc2oc(-c3cc(F)ccc3Br)nc2c1)c1cc[n+]([O-])cc1`, the “% Inhibition” value is -3% and the Z score amounted to 0.74.

Turning to `C[C@H](NC(=O)Nc1ccc(F)cc1)C(C)(C)C`, the “% Inhibition” value is -12% and the Z score was determined as 1.77.

As for `COc1cc(Cl)ccc1-c1nc(-c2ccc3c(c2)ncn3CCC(=O)N2CCCC2)no1`, the “% Inhibition” value was -24% and the Z score amounted to 3.15.

Regarding `CN(C)c1ccc(C(=O)N2CCc3ccc(Br)cc32)nn1`, the “% Inhibition” value is -20% and the Z score was determined as 1.81.

Regarding `Cc1c(C(=O)N2CCC3(CCOCC3)C2)cnn1C(C)C`, the “% Inhibition” value is -2% and the Z score is on record as 0.27.

In the case of `CC(C)(C)OC(=O)N[C@@H]1CCCN(Cc2nc(-c3ccco3)no2)C1`, the “% Inhibition” value is -11% and the Z score stood at 1.1.

Regarding `Fc1ccccc1COc1ccc(Cl)cc1CNC1CCCCCCC1`, the “% Inhibition” value was -2% and the Z score was determined as 0.26.

For `O=C(CC1CCC1)NCC(=O)c1ccco1`, the “% Inhibition” value was -7% and the Z score was found to be 0.95.

Take `O=C(Nc1ccccc1)N1CCN2C(=O)c3ccccc3[C@]12c1ccccc1`: the “% Inhibition” value came to 3% and the Z score was -0.44.

For `CN(C)c1noc(CN2CCOCc3ccccc32)n1`, the “% Inhibition” value is listed as -28% and the Z score amounted to 3.27.

With `Cn1ncnc1Cn1c(COc2ccccc2)nc2ccccc21`, the “% Inhibition” value is recorded as -3% and the Z score worked out at 0.55.

On to `CC(=O)N1CCN(C(=O)c2csc(NC(=O)c3ccccc3F)n2)CC1`, for which the “% Inhibition” value is reported as -4% and the Z score came out at 0.49.

Take `COc1ccc(-c2nc3nc(C)c(CC(=O)Nc4ccc(Br)cc4)c(C)n3n2)cc1`: the “% Inhibition” value was -19% and the Z score was determined as 1.82.

Regarding `O=C(Nc1ccccc1)N1CCCN(C2CCC2)CC1`, the “% Inhibition” value was -8% and the Z score turned out to be 1.32.

Consider `Cc1nc(NCc2cnc(-c3ccccc3)s2)sc1-c1ccn(Cc2ccsc2)n1`, for which the “% Inhibition” value was found to be 9% and the Z score is given as -1.21.

For `C[C@@H]1CN(Cc2cn(C)nc2-c2ccccc2Cl)CC(C(N)=O)O1` (stereo partly specified), the “% Inhibition” value is reported as -6% and the Z score was determined as 1.1.

`O=S(=O)(c1cccc2nonc12)N1CCCC1`: the “% Inhibition” value is -2% and the Z score was found to be 0.38.

For `Cc1nc2ccccn2c1CNC(=O)[C@H]1CCO[C@@H]1c1ccccc1`, the “% Inhibition” value is on record as -4% and the Z score was 0.56.

For the compound `Cc1n[nH]c(C)c1[C@H](C)N(C)C(=O)CC1CCN(C(C)C)CC1`, the “% Inhibition” value is recorded as -5% and the Z score came out at 0.99.

On to `Cc1ccn2c(C(=O)N[C@H]3C[C@@H]4CC[C@H]3C4)nnc2n1`, for which the “% Inhibition” value is given as -22% and the Z score turned out to be 1.91.

Consider `CC1(CNC(=O)c2cccs2)CCOCC1`, for which the “% Inhibition” value was determined as 1% and the Z score is given as -0.14.

`Cc1cc(C(F)(F)F)cc(N2CCO[C@@H](CN)C2)n1`: the “% Inhibition” value is given as -10% and the Z score is 1.74.

In the case of `Cc1ccc2oc(N3CCC[C@@H]3CN3CCCC3)nc2c1`, the “% Inhibition” value was -12% and the Z score is recorded as 1.65.

Take `CC(C)n1ccnc1CN1CCOc2cc(N(C)C)ccc21`: the “% Inhibition” value is on record as -7% and the Z score is recorded as 0.93.

With `COc1ccnc(N(Cc2ccccc2)CC2(O)CCCC2)n1`, the “% Inhibition” value is -1% and the Z score came out at 0.17.

Regarding `Cc1nnc(-c2ccc(C(=O)N3CCN(c4cnccn4)CC3)cc2)[nH]1`, the “% Inhibition” value is given as -17% and the Z score is given as 2.07.

For the compound `Cc1cccc(Nc2nnc(CC(=O)Nc3cc(Cl)cc(Cl)c3)s2)c1`, the “% Inhibition” value is reported as -4% and the Z score is 0.52.

As for `CCNC(=O)N[C@H]1CCc2cc(C(=O)OC)ccc2NC1=O`, the “% Inhibition” value is reported as 3% and the Z score is -0.61.

For `C[C@H](N)c1ncc(Br)cn1`, the “% Inhibition” value is recorded as -3% and the Z score stood at 0.52.

Consider `N[C@@H](CO)c1cccc(Cl)c1Cl`, for which the “% Inhibition” value amounted to 5% and the Z score was -0.77.

As for `O=C(N[C@@H]1CCCC[C@H]1NC(=O)C1CCN(C(=O)c2ccc(C(F)(F)F)cc2)CC1)c1ccccc1`, the “% Inhibition” value is -4% and the Z score was 0.41.

As to `CCC(=O)N1CCc2sc(C(=O)NC3CCN(Cc4ccccc4)CC3)cc2C1`, the “% Inhibition” value is reported as 41% and the Z score was -5.88.

For `CCc1nccn1CCC(=O)N[C@H]1COC[C@@H]1OC`, the “% Inhibition” value was determined as 8% and the Z score was -0.99.
